Data from the RNAGym collection of RNA variant scans (doi:10.7554/elife.90254).
Read counts are not given, so values of variants with three or more changes are uncertain.

B1: OR4K15 (parent)
chain: GUUAACGGUCAUAGGCCAUGGAAACUAGGAGCACCAUUUCGCUGCCAGUGAAGAAAUGAACAAAGAAAAUCUGGGCCAGGCAGGCAUCAAAAGAAAUAGUCUUGCGCUCAACCAGAAAGUCUGUAAUCAUUUUAAGGGUA

Variants of: B1
Test: self-cleavage, relative activity (ratio to wild type); higher = more cleavage; in vitro, sequencing; the parent is a self-cleaving ribozyme

Row | Variant | self-cleavage
1 | A94G A114G A126G | 0.39
2 | A114U A116C U127C | 0
3 | A89G C105G U139C | 0.06
4 | U102A A110U U130C | 0.43
5 | A86G A118G U132C | 0.92
6 | C109U U122A A140G | 0.44
7 | A91G G99A U124C | 0.07
8 | U87A U103C A114G | 0.22
9 | A90G A94U A125G | 0.26
10 | A111G A114G A126U | 0.01
11 | A82U U103C U108C U127C | 0.01
12 | A91G U100A A125C | 0.2
13 | A116G A126G U132C | 0.25
14 | A86G A96U A110G A129G | 0.06
15 | U87A U103C U124A | 0.8
16 | A91U A96G A117G | 2.86
17 | A89C A94G A95G A118G A135G | 2.3
18 | A92G U122C A126G | 0.97
19 | A86G A89C G137A | 0.57
20 | A94G A96U A126U U131C | 0.62
21 | A91G A96G A111G | 0.02

Row | Variant | self-cleavage
22 | A86G A92G U100C | 2.27
23 | A95G U100C A117G | 2.89
24 | U108C A111G A125G | 0
25 | U87C A95G G137A | 1.23
26 | A96G U103C A125G | 0.59
27 | A92G U103C U122A U130C | 0.37
28 | A94G G115U U124C | 0.01
29 | U87C A117G U120A | 1.71
30 | A96G U122C U130C | 1.21
31 | A86G A118G A140G | 0.47
32 | A92G U103G U133C | 0.02
33 | A92G A98G A126G | 0.35
34 | A118G U120A A126C | 1.62
35 | A92G A94G U108C U127A | 0.03
36 | A92G U100C A140G | 2.71
37 | A116U A126G U131G | 0.19
38 | A90G U122C G137A | 0.43
39 | A98C A126G A135G | 1.91
40 | A94G A110G A126G | 0.09
41 | U87C A89U U122C U130G | 0.32
42 | U87C A98U A114G | 0.45

Row | Variant | self-cleavage
43 | A92G U103C U108C A116G A118G | 0
44 | A89U A117G A118U | 1.66
45 | U97C A117G G136U | 2.18
46 | A89G U103C A126G A135U | 0.34
47 | U108A A110G A116G A118G U139C | 0
48 | G106A C128A A129G | 0.01
49 | A94G U102C G104A U127C | 0.01
50 | U87C A116G U132C | 0.35
51 | U87C U100C U139C | 2.12
52 | A90G U100C A116U A140G | 0.56
53 | A91G U108A U127C | 0.02
54 | A86U U102C A125G | 1.15
55 | A90G A96G C109A U130C | 0.12
56 | A91U A96G G104A | 0.04
57 | U87C U100A A118U | 0.23
58 | A92G A117U U133A | 0.77
59 | A96G U100A U122C U127A | 1.16
60 | A89G A117G C121A | 2.78
61 | A92G U103C U131C | 0.19
62 | A95G U102C U130C | 2.43
63 | U108C U120C U130C | 0

Row | Variant | self-cleavage
64 | A86G A90C A129U | 0.81
65 | A86G A96G U132C | 1.33
66 | A91G A96G C101U C105U | 0.01
67 | U87C G115U U124C | 0.01
68 | A96G U103C U127C | 0.09
69 | A89G U100A U103C | 0.17
70 | A116G U130C U133C | 0.34
71 | U87C A96G U130C A135G | 1.41
72 | A96G A111G U120C U130C | 0
73 | A95G U103A A110U | 1.78
74 | A95G U108C U132C | 0.02
75 | A94G A110G U127C | 0.08
76 | A96G A117G U133C | 2.68
77 | A94G U102C A126C | 2.27
78 | A94G C105U A125G | 0.02
79 | G84U U108C A118U | 0
80 | A90G U108A A116G U131C | 0
81 | G93A A96U A135G | 2.64
82 | A111G A117G U124C A126G | 0.01
83 | U102C A111G A134G | 0.01
84 | A91U A94G U97C U122A | 1.23
